Measured values from PubChem BioAssay AID894 (National Center for Advancing Translational Sciences (NCATS), 2007).
Hit rate of the full screen: of about 150,000 compounds, about 6,500 (4.3%) were called active. This list was built around the results that the source calls inconclusive (neither active nor inactive); the mix of calls is not that of the screen. Calls follow the shape of the dose curve; as a rule, active = well fitted inhibition curve with a large enough effect (not every such curve was filed as active); inconclusive = small, poorly fitted or top-dose-only effect, or another doubt; inactive = no such curve, though single readings can be large or run the other way. Potencies of inconclusive entries are left out as doubtful fits.

Each compound was assayed against 15-hydroxyprostaglandin dehydrogenase [NAD(+)] (Homo sapiens) (UniProt P15428) (assay: qHTS Assay for Inhibitors of HPGD (15-Hydroxyprostaglandin Dehydrogenase)). Conditions: purified HPGD, NADH fluorescence kinetic, PGE2 substrate; activity change, negative = inhibition: stronger effect = lower value.
Chain of UniProt P15428 (P15428 whole entry, looked up): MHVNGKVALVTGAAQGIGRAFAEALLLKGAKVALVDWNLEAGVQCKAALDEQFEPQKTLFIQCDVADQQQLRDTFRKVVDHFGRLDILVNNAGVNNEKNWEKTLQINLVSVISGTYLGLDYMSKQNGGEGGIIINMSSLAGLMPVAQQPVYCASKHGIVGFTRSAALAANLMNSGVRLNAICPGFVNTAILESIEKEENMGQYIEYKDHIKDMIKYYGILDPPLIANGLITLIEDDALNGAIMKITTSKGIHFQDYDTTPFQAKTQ
Method in brief: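 20 nM HPGD preincubated 15 min at room temperature with compound in 50 mM Tris-HCl pH 8, 0.01% Tween 20. Started with 1 mM NAD+ and 30 uM prostaglandin E2; NADH fluorescence (360/450 nm) read 5 times over 30-s intervals, last minus first.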
% is scaled to controls: 0 for no effect and ±100 for the full control effect; potency is read from the fitted curve at half-maximal effect; tags tell the direction and shape of the fitted curve.

Row | Compound | Potency | activity change, negative = inhibition
1 | O=C(NCc1ccco1)c1ccc(S(=O)(=O)N2CCOCC2)cc1 | active: 15.8 µM | 
2 | CC(=O)Nc1ccc(S(=O)(=O)NC2(C(F)(F)F)C(=O)Nc3c2c(=O)n(C)c(=O)n3C)cc1 (stereo not given) | active: 20 µM | 
3 | Cc1ccc(-c2[nH]c3ccccc3c2SCCNC(=O)c2cc3ccccc3oc2=O)cc1 |  | inactive: -6.47%
4 | Cc1ccc(N=C2C(=S)N(c3ccc(C)cc3)C(=N)N2/N=C/c2ccc(Cl)cc2)cc1 | active: 35.5 µM | 
5 | Cc1ccc(NC(=O)c2ccc3c(c2)OCCO3)cc1S(=O)(=O)Nc1cccc(Cl)c1 | inconclusive [inhibitor, partial curve] | 
6 | COC(=O)N/N=C/c1ccc(OCCSc2ccc(Cl)cc2)c(OC)c1 | inconclusive [inhibitor, full curve, poor fit] | 
7 | COc1cccc(Cn2c(=O)c(-c3cccc(F)c3)nc3cncnc32)c1 | active: 20 µM | 
8 | COc1cc2c(cc1OC)C1N(CC2)C(=O)CCC12C(=O)CCCC2=O (stereo not given) | inconclusive [inhibitor, partial curve] | 
9 | O=S(=O)(Nc1ccc(-c2nc3cccnc3s2)cc1)c1ccc(Cl)s1 | inconclusive [inhibitor, partial curve] | 
10 | CN(C)CCNC(=O)c1cc2c(s1)-c1ccccc1OC2 | inconclusive [inhibitor, full curve] | 
11 | O=C(CSc1ccc2nnc(-c3cccc(F)c3)n2n1)NCC1CCCO1 (stereo not given) | inconclusive [inhibitor, partial curve] | 
12 | C=CCSc1nnc(NC(=O)c2cccc(S(=O)(=O)N3CCOCC3)c2)s1 | active: 3.55 µM | 
13 | COCCCNC(=O)Cn1nnc(-c2ccc(NC(=O)c3ccc(F)cc3)cc2)n1 | inconclusive [inhibitor, full curve] | 
14 | O=C(Nc1cccc(NC(=O)c2ccc(-c3ccc(Br)cc3)o2)c1)c1ccccc1 | inconclusive [inhibitor, partial curve] | 
15 | Oc1cc(NCc2cccnc2)ccc1-c1nc2ccccc2o1 | inconclusive [inhibitor, single point] | 
16 | Fc1ccc(Nc2c(-c3ccco3)nc3ccccn23)cc1 | inconclusive [inhibitor, partial curve] | 
17 | Cc1cc(NCCCN2CCOCC2)n2ncc(-c3ccccc3)c2n1 | inconclusive [inhibitor, partial curve] | 
18 | CCOC(=O)c1cc2c(=O)n3ccccc3nc2n(Cc2ccccc2Cl)c1=N | inconclusive [inhibitor, partial curve] | 
19 | CC(C)OCC1CC(CC(=O)NC(=S)Nc2cccc([N+](=O)[O-])c2)C(=O)O1 (stereo not given) |  | inactive: -11.6%
20 | N#Cc1nc(-c2ccco2)oc1NCCCN1CCOCC1 | inconclusive [inhibitor, partial curve] | 
21 | Cc1cc(C)cc(NC(=O)c2cc(Cl)sc2Cl)c1 | active: 31.6 µM | 
22 | COC(=O)c1cc(Br)ccc1-c1ccc(/C=N/n2nnnc2N)o1 | inconclusive [inhibitor, single point] | 
23 | CCOC(=O)c1c(C)nc2sccn12 |  | inactive: -7.53%

Row | Compound | Potency | activity change, negative = inhibition
24 | CC(=O)C1=C(C)NC(SCc2cccc3ccccc23)=C(C#N)C1c1ccco1 (stereo not given) | inconclusive [inhibitor, partial curve] | 
25 | CCCCNC(=O)Cc1ccc(C)cc1 | inconclusive [inhibitor, partial curve] | 
26 | Cn1c(=O)n(C)c2cc(S(=O)(=O)NCCO)ccc21 |  | inactive: -2.21%
27 | Cc1nccn1-c1cc(C(C)(C)C)nc2c(-c3ccccc3)cnn12 |  | inactive: -16.8%
28 | Cc1ccc(S(=O)(=O)N2CCCCC2C(=O)N2CCN(C)CC2)cc1 (stereo not given) |  | inactive: -25.6%
29 | CCOC(=O)Cc1c(C)nc2c(-c3cccc(Br)c3)cnn2c1C | inconclusive [inhibitor, single point] | 
30 | CCOC(=O)/C(C#N)=C/c1cc2ccc(C)cc2nc1Cl | inconclusive [inhibitor, single point] | 
31 | O=C1c2ccc3c4c(ccc(c24)C(=O)N1c1ccc2ccccc2c1)CC3 | inconclusive [inhibitor, single point] | 
32 | CCCSc1ccc(-c2nn(-c3ccccc3)cc2/C=C(/C#N)C(=O)N2CCOCC2)cc1 | inconclusive [inhibitor, partial curve] | 
33 | Cc1ccc(O)c(C(=O)c2cc(C#N)c(=O)n(CC3CCCO3)c2)c1 (stereo not given) |  | inactive: -22.3%
34 | COc1cccc(-n2nnnc2SCC(=O)Nc2nc3c(s2)CCCC3)c1 | active: 25.1 µM | 
35 | COc1cc(-c2nn3c(-c4cccnc4)nnc3s2)cc(OC)c1OC | inconclusive [inhibitor, partial curve] | 
36 | CC(=O)Nc1sc2c(c1C(N)=O)CCCC2 |  | inactive: -6.24%
37 | COc1cc(C(C)=O)ccc1COc1ccc(C(=O)OCC(N)=O)cc1OC |  | inactive: -19.9%
38 | Cc1cc(OCC(=O)Nc2ccc3oc(-c4ccncc4)nc3c2)ccc1Cl | inconclusive [inhibitor, single point] | 
39 | Cn1nc(-c2ccc(OCC(=O)NCC3CCCO3)cc2)c2ccccc2c1=O (stereo not given) | inconclusive [inhibitor, partial curve] | 
40 | COc1ccc(-n2c(=S)[nH]c3ccccc32)cc1 | active: 22.4 µM | 
41 | O=C(c1cc(-c2cccs2)nc2ccccc12)N1CCN(S(=O)(=O)c2cccc(F)c2)CC1 | inconclusive [inhibitor, partial curve] | 
42 | CN(C)c1ccc(/C=C2\C(=O)Nc3ccccc32)cc1 | inconclusive [inhibitor, single point] | 
43 | C/C(=N\NC(=O)COc1ccc(C)cc1C(C)C)c1cc2ccccc2o1 | inconclusive [inhibitor, partial curve] | 
44 | CC1(C)CCC(=O)N[C@H]1CC(=O)C[C@H]1NC(=O)CCC1(C)C |  | inactive: 1.67%
45 | N#Cc1cc2c(nc1SCC(=O)N1CCCCC1)CCCCC2 | active: 25.1 µM | 
